# Data published in PubChem BioAssay (NCATS).
# Where “and” joins values, the source holds several entries; their conditions need not be identical. Identical values can stand only once. Some of the results follow. Shown are side measurements of this screen, not its main read-out; they come without a call. For some of these results: Most of these compounds were active or inconclusive in the main read-out, so they are no random draw. Words in brackets tell the shape of the fitted curve; partial curves, single points and poor fits give uncertain potencies.
# Tests used:
# [1] = molecular target: Nicotinamide N-methyltransferase (Homo sapiens) (UniProt P40261); assay: Confirmatory Screen for Target Class Profiling of Small Molecule Inhibitors of Methyltransferases (AID 1745852); conditions: MTase-Glo luminescence, SAH detection, recombinant enzyme; measured here: NNMT inhibition potency;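 further: inhibitor potency for blocking SAH production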
# [2] = qHTS drug screen for cell cycle checkpoint inhibitors in PARPi-resistant BRCA-mutant ovarian cancer cell lines. (AID 1963452); conditions: PEO1/OlaR viability, CellTiter-Glo luminescence, 96 h
# Method in brief: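 PEO1, PEO4 and PEO1/OlaR ovarian cancer cells, 600 per well, exposed 96 h at 37C to a dilution series. Viability read by CellTiter-Glo luminescence, normalized to DMSO and empty wells; activity summarized as Z-AUC.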
# [3] = NCATS anti-infectives library activity on the primary C. elegans qHTS viability assay (AID 1745855); conditions: C. elegans worm area imaging, day 7; measured here: worm number, day 3
# Method in brief: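 Viability read-out is GFP fluorescence of PE254-GFP-FLuc C. elegans, measured by laser cytometry (488 nm) at day 0, 3 and 7. Ten L1 worms per well were incubated 7 days at 21 °C with compounds and bacterial capsules in S medium.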
# [4] = qHTS for identification of novel therapeutic agents for treatment of microphthalmiaassociated transcription factor (MiT) renal cell carcinoma (RCC) (AID 1963991); conditions: CellTiter-Glo, 48 h; for z-score: stronger effect = lower value
# Method in brief: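 Three TFE3-fusion RCC cell lines (UOK109, UOK124, UOK145), 500 cells/well, were exposed to the 1912-compound MIPE 4.0 library for 48 hours at 37 C. Viability was read by CellTiter-Glo luminescence, normalised to DMSO (100%) and empty wells (0%), with 11-concentration curve fits.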
# [5] = molecular target: Phenylethanolamine N-methyltransferase (Homo sapiens) (UniProt P11086); assay: Confirmatory Screen for Target Class Profiling of Small Molecule Inhibitors of Methyltransferases (AID 1745852); conditions: MTase-Glo luminescence, SAH detection, recombinant enzyme; measured here: PNMT inhibition potency;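 further: inhibitor potency for blocking SAH production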
# [6] = measured here: PEO1 parental viability
# [7] = TFE3-RCC UOK109 viability, measured here: UOK109 Z-AUC
# [8] = TFE3-RCC viability, measured here: UOK124 Z-AUC
# [9] = TFE3-RCC viability, measured here: UOK124 cell viability
# [10] = TFE3-RCC viability, measured here: UOK145 Z-AUC
# [11] = TFE3-RCC viability, measured here: UOK145 cell viability
# Tags describe the fitted curve by direction and shape.
# Chain of UniProt P11086 (P11086 whole entry, looked up): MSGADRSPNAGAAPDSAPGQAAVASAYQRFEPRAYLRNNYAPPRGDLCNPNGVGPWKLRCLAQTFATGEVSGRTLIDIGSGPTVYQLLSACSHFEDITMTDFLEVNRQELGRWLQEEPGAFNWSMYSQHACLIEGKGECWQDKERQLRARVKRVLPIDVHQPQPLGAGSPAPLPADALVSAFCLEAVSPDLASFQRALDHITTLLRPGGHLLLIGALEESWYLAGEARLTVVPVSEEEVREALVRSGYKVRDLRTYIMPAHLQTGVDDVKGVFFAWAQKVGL
# Chain of UniProt P40261 (P40261 whole entry, looked up): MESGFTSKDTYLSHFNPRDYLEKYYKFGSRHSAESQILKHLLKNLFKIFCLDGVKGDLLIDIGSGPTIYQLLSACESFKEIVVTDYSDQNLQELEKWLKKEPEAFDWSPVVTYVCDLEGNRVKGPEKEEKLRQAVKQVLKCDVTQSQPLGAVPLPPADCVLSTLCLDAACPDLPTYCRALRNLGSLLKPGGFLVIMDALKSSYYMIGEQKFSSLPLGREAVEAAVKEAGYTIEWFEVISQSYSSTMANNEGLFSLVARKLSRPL
compound,measurement,setting,value
Cc1[nH]c(/C=C2\C(=O)Nc3ccc(S(=O)(=O)N(C)c4cccc(Cl)c4)cc32)c(C)c1C(=O)N1CCN(C)CC1,IC50,[1],"6.07 µM [falling, partial curve]"
same,AC50,[2]; [6],"15.5 µM [falling, partial curve]"
same,AC50,[2]; measured here: PEO4 viability,"15.5 µM [falling, single point]"
N#Cc1cnc2cnc(NCc3cccnc3)cc2c1Nc1ccc(F)c(Cl)c1,IC50,[1],"21.5 µM [falling, partial curve]"
COc1cccc(CN2C(=O)c3nc4ccccc4n3CC2(C)C(=O)NC2CCC(C)CC2)c1 (stereo unspecified),IC50,[1],"21.5 µM [falling, partial curve]"
CC(C)C[C@H](CO)Nc1nc(S[C@@H](C)c2ccccc2)nc2nc(N)sc12,IC50,[1],"24.1 µM [falling, partial curve]"
same,AC50,[2]; [6],"19.5 µM [falling, partial curve, poor fit]"
same,AC50,[2]; measured here: PEO4 viability,"24.5 µM [falling, single point]"
O=C(c1ccccc1)c1ccc2nc(NC(=O)c3csc(C4CCN(c5ncnc6ccsc56)CC4)n3)[nH]c2c1,IC50,[1],"1.71 µM [falling, full curve]"
same,AC50,[3],"0.515 µM [falling, full curve, poor fit]"
CS(=O)(=O)c1cccc(CNc2nc(Nc3ccc4c(c3)CCC(=O)N4)ncc2C(F)(F)F)c1,IC50,[1],"19.2 µM [falling, partial curve] and 19.3 µM [falling, partial curve, poor fit]"
same,AC50,[2]; [6],"21.9 µM [falling, partial curve]"
same,AC50,[2]; measured here: PEO4 viability,"6.16 µM [falling, partial curve]"
same,z-score,[4]; [7],0.19
same,z-score,[4]; [8],-0.146
same,AC50,[4]; [9],"18.7 µM [falling, partial curve]"
same,z-score,[4]; [10],-0.0736
same,AC50,[4]; [11],"23.5 µM [falling, partial curve, poor fit]"
S=c1ssc2c1CCC2,IC50,[1],"5.41 µM [falling, partial curve]"
same,IC50,[5],"10.8 µM [falling, partial curve]"
CCCS(=O)(=O)Nc1ccc(F)c(C(=O)c2c[nH]c3ncc(-c4ccc(Cl)cc4)cc23)c1F,IC50,[1],"10.8 µM [falling, partial curve, poor fit]"
same,AC50,[2]; [6],"19.5 µM [falling, partial curve]"
same,AC50,[2]; measured here: PEO4 viability,"15.5 µM [falling, single point]"
same,z-score,[4]; [7],0.0416
same,z-score,[4]; [8],0.208
same,AC50,[4]; [9],"20.9 µM [falling, single point]"
same,z-score,[4]; [10],-0.0944
same,AC50,[4]; [11],"23.5 µM [falling, partial curve]"
Nc1ccccc1NC(=O)c1ccc(CNc2nccc(-c3cccnc3)n2)cc1,IC50,[1],"4.85 µM [falling, partial curve, poor fit]"
same,AC50,[2]; [6],"1.95 µM [falling, full curve]"
same,AC50,[2]; measured here: PEO4 viability,"3.47 µM [falling, full curve]"
same,z-score,[4]; [7],-0.866
same,z-score,[4]; [8],-1.24
same,AC50,[4]; [9],"2.35 µM [falling, full curve]"
same,z-score,[4]; [10],-0.639
same,AC50,[4]; [11],"11.8 µM [falling, partial curve]"
O=C(c1ccc(C(F)(F)F)cc1)N1CCCC(C(=O)N2CCC(c3nc4ccncc4[nH]3)CC2)C1 (stereo unspecified),IC50,[1],"24.1 µM [falling, partial curve, poor fit]"
CC1(C(=O)NC2CCCCC2)Cn2c(c(-n3cccc3)c3ccccc32)C(=O)N1Cc1ccccn1 (stereo unspecified),IC50,[1],"15.2 µM [falling, partial curve]"
CCCCCc1ccc(/C=C/C(=O)Nc2cc(Cl)ccc2C(=O)O)cc1,IC50,[1],"27.1 µM [falling, partial curve]"
Cn1cc(-c2ccc(F)c(C(F)(F)F)c2)nc1C1CCN(c2ncnc3[nH]ncc23)CC1,IC50,[1],"2.71 µM [falling, partial curve]"
same,AC50,[2]; measured here: PEO4 viability,"12.3 µM [falling, partial curve]"
CC1CC(C)CN(S(=O)(=O)c2ccc3c(c2)oc(=O)n3CC(=O)Nc2ccc(F)cc2)C1 (stereo unspecified),IC50,[5],"19.2 µM [falling, partial curve]"
CC1=C(C(=O)OC2CCCCC2)C(c2ccc([N+](=O)[O-])cc2)C2=C(CC(C)(C)CC2=O)N1 (stereo unspecified),IC50,[5],"15.2 µM [falling, partial curve]"
NS(=O)(=O)OC[C@@H]1C[C@@H](n2ccc3c(N[C@H]4CCc5ccccc54)ncnc32)C[C@@H]1O,IC50,[5],"17.1 µM [falling, partial curve]"
same,AC50,[2]; [6],"0.49 µM [falling, full curve]"
same,AC50,[2]; measured here: PEO4 viability,"0.138 µM [falling, full curve]"
